In the supplement of paper PMC9446081:
Among all 39,000 compounds or so, about 220 (0.56%) showed activity. The list shows a part of the results.

These compounds were tested on Escherichia coli K-12 BW25113 (assay: relative growth (OD600 normalised to plate interquartile mean) (fraction); higher = less growth inhibition, active = 0.2 or less). Details: 50 µM; LB; incubation time: overnight (16-24 h).
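Further: static incubation at 37 °C against the wild-type strain, values averaged over two biological replicates.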

| Structure (SMILES) | relative growth |
| --- | --- |
| C[C@@H]1CCCCO[C@@H](CN(C)C(=O)Nc2ccccc2)[C@H](C)CN([C@@H](C)CO)C(=O)c2cc(NC(=O)Nc3cccc4ccccc34)ccc2O1 | inactive: 1.07 |
| O=C(C[C@@H]1CC[C@@H]2[C@H](COC[C@@H](O)CN2S(=O)(=O)c2ccc(Cl)cc2)O1)N[C@H]1CCN(Cc2ccccc2)C1 | inactive: 0.976 |
| CO[C@@H]1CN(C)C(=O)c2cc(NS(C)(=O)=O)ccc2OC[C@@H](C)N(C(=O)CN(C)C)C[C@@H]1C | inactive: 1.01 |
| CC(C)N1C[C@@H](CO)CC1=O | inactive: 1.02 |
| O=C(N/N=C/[C@@H](O)[C@@H](O)[C@H](O)[C@H](O)CO)c1ccccn1 | inactive: 0.989 |
| C[C@@H]1CN([C@H](C)CO)C(=O)c2cccc(NC(=O)c3ccc(-c4nccs4)cc3)c2O[C@@H]1CN(C)S(=O)(=O)c1ccc(Cl)cc1 | inactive: 0.993 |
| C[C@@H]1CC[C@@]2(OC1)O[C@H]1C[C@H]3[C@H]4C[C@@H](O)[C@H]5C[C@@H](O[C@@H]6O[C@H](CO)[C@H](O[C@@H]7O[C@H](CO)[C@@H](O)[C@H](O[C@@H]8OC[C@@H](O)[C@H](O)[C@H]8O)[C@H]7O[C@@H]7O[C@H](CO)[C@@H](O[C@@H]8O[C@H](CO)[C@@H](O)[C@H](O)[C@H]8O)[C@H](O)[C@H]7O)[C@H](O)[C@H]6O)[C@H](O)C[C@]5(C)[C@@H]4CC[C@]3(C)[C@H]1[C@@H]2C | inactive: 0.887 |
| CN(C)CC(=O)N[C@@H]1CC[C@H](CCn2cc(CN(C)C)nn2)O[C@H]1CO | inactive: 1.01 |
| C[C@@H]1CN([C@H](C)CO)C(=O)Cc2cc(NS(=O)(=O)c3cccs3)ccc2O[C@@H]1CN(C)Cc1ccc(Oc2ccccc2)cc1 | inactive: 0.988 |
| C[C@@H]1CN([C@H](C)CO)C(=O)Cc2cc(NC(=O)c3ccncc3)ccc2O[C@@H]1CN(C)C(=O)Nc1ccc2c(c1)OCO2 | inactive: 1 |
| C[C@H](CO)N1C[C@H](C)[C@@H](CN(C)Cc2ccc(C(F)(F)F)cc2)OCCCC[C@H](C)Oc2ccc(NC(=O)Nc3ccc4c(c3)OCO4)cc2C1=O | inactive: 1.02 |
| C[C@@H]1CN([C@H](C)CO)C(=O)c2cc(NC(=O)Nc3ccc(C(F)(F)F)cc3)ccc2O[C@@H]1CN(C)Cc1ccc(-c2ccccc2)cc1 | inactive: 0.996 |
| Cc1noc(C)c1S(=O)(=O)N(C)C[C@H]1Oc2ccc(NS(C)(=O)=O)cc2CC(=O)N([C@@H](C)CO)C[C@@H]1C | inactive: 0.969 |
| C[C@H]1CN([C@@H](C)CO)C(=O)c2cc(NC(=O)CCCN(C)C)ccc2O[C@@H]1CN(C)Cc1ccc2c(c1)OCO2 | inactive: 1.01 |
| O=C(C[C@@H]1C[C@@H]2c3cc(NC(=O)Cc4ccncc4)ccc3O[C@@H]2[C@@H](CO)O1)NCCc1ccccc1 | inactive: 0.987 |
| C[C@H]1CN([C@@H](C)CO)C(=O)c2cccc(NC(=O)C3CC3)c2O[C@H]1CN(C)C(=O)Nc1ccc2c(c1)OCO2 | inactive: 1.02 |
| C[C@@H]1CN([C@H](C)CO)S(=O)(=O)c2ccc(C3=CCCC3)cc2O[C@H]1CN(C)C(=O)c1cnccn1 | inactive: 1.01 |
| C[C@H](CO)N1C[C@H](C)[C@H](CN(C)Cc2ccc(-c3ccccc3)cc2)Oc2ccc(NC(=O)c3ccncc3)cc2CC1=O | inactive: 1.02 |

| Structure (SMILES) | relative growth |
| --- | --- |
| COc1ccc(NC(=O)Nc2ccc3c(c2)C(=O)N([C@@H](C)CO)C[C@@H](C)[C@@H](CN(C)Cc2ccc(C(F)(F)F)cc2)OCCCC[C@H](C)O3)cc1 | inactive: 1.07 |
| Cc1ccc(S(=O)(=O)N(C)C[C@H]2Oc3ccc(NS(=O)(=O)c4cn(C)cn4)cc3C(=O)N([C@H](C)CO)C[C@@H]2C)cc1 | inactive: 1.03 |
| C[C@H](CO)N1C[C@H](C)[C@H](CN(C)Cc2ccccc2)Oc2ccc(NC(=O)Nc3ccc(C(F)(F)F)cc3)cc2CC1=O | inactive: 0.964 |
| C[C@H]1CN([C@@H](C)CO)C(=O)Cc2cc(NS(=O)(=O)c3ccc(F)cc3)ccc2O[C@H]1CN(C)CC1CC1 | inactive: 1.01 |
| Cn1c(=O)c2c(ncn2CC(=O)N2CCN(C(=O)c3ccco3)CC2)n(C)c1=O | inactive: 0.963 |
| O=C(C[C@H]1CC[C@@H]2[C@H](COC[C@H](O)CN2C(=O)C2CC2)O1)NCc1ccncc1 | inactive: 1.03 |
| C[C@H]1CCCCO[C@H](CN(C)S(=O)(=O)c2cccs2)[C@@H](C)CN([C@@H](C)CO)C(=O)c2cc(NC(=O)CCC(F)(F)F)ccc2O1 | inactive: 0.982 |
| COc1ccc2c3c(n(c2c1)C)[C@H](CO)N(C[C@]13CN(C1)C(=O)CN(C)C)C(=O)CN(C)C | inactive: 1.03 |
| CN1C(=O)c2cc(NC(=O)Cc3cccs3)ccc2OC[C@@H]2O[C@H](CC(=O)NCCCN3CCOCC3)CC[C@@H]21 | inactive: 1.02 |
| C=CC[N+]1(C2CC3C4CCC5CC(O)C(N6CCOCC6)CC5(C)C4CCC3(C)C2OC(C)=O)CCCC1.[Br-] (stereo unspecified) | inactive: 1.03 |
| Cc1ccc(S(=O)(=O)NCC[C@@H]2CC[C@H](NS(=O)(=O)c3ccccc3Cl)[C@@H](CO)O2)cc1 | inactive: 1.01 |
| C[C@@H]1CCCCO[C@@H](CN(C)Cc2ccccc2)[C@@H](C)CN([C@@H](C)CO)C(=O)c2cc(NS(=O)(=O)c3ccccc3)ccc2O1 | inactive: 0.996 |
| CC(=O)O[C@H]1C[C@](C)(O)C2=C[C@@H](O)[C@@](C)(O)[C@@H]2[C@H]2OC(=O)[C@@H](C)[C@@H]21 | inactive: 1.02 |
| COc1ccc(COCC23Oc4ccccc4[C@H]([C@H]2CO)n2c(c4ccccc4c(-c4ccccc4)c2=O)N3C)cc1 | inactive: 1.01 |
| C=C(C)C1CC=C(C)CC1 (stereo unspecified) | inactive: 0.975 |
| Cn1c(=O)[nH]c(=O)c2[nH]cnc21 | inactive: 0.953 |
| C[C@@H]1CC=CC[C@H](c2cccc(Cl)c2)NC(=O)[C@@H](Cc2ccccc2)N(C)C(=O)c2ccccc2O1 | inactive: 1.02 |
| COc1cccc(NC(=O)N2C[C@H](O)COC[C@@H]3O[C@H](CC(=O)NCc4ccccc4F)CC[C@H]32)c1 | inactive: 1.01 |
